According to publication PMC4336329 (PLoS ONE, 2015):
Among all 310,000 compounds or so, about 14,000 (4.5%) showed an effect of 50% or more. Effects have a minus sign here. The list shows a part of the results.

Each molecule was assayed against human ether-à-go-go-related gene (hERG) potassium channel (human, UniProt Q12809) (assay: primary screen, population patch clamp on CHO cells stably expressing hERG).
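Further: peak tail current of the secondary pulse compared with the same well before compound.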

Sequence of human ether-à-go-go-related gene (hERG) potassium channel (Q12809 whole entry, looked up): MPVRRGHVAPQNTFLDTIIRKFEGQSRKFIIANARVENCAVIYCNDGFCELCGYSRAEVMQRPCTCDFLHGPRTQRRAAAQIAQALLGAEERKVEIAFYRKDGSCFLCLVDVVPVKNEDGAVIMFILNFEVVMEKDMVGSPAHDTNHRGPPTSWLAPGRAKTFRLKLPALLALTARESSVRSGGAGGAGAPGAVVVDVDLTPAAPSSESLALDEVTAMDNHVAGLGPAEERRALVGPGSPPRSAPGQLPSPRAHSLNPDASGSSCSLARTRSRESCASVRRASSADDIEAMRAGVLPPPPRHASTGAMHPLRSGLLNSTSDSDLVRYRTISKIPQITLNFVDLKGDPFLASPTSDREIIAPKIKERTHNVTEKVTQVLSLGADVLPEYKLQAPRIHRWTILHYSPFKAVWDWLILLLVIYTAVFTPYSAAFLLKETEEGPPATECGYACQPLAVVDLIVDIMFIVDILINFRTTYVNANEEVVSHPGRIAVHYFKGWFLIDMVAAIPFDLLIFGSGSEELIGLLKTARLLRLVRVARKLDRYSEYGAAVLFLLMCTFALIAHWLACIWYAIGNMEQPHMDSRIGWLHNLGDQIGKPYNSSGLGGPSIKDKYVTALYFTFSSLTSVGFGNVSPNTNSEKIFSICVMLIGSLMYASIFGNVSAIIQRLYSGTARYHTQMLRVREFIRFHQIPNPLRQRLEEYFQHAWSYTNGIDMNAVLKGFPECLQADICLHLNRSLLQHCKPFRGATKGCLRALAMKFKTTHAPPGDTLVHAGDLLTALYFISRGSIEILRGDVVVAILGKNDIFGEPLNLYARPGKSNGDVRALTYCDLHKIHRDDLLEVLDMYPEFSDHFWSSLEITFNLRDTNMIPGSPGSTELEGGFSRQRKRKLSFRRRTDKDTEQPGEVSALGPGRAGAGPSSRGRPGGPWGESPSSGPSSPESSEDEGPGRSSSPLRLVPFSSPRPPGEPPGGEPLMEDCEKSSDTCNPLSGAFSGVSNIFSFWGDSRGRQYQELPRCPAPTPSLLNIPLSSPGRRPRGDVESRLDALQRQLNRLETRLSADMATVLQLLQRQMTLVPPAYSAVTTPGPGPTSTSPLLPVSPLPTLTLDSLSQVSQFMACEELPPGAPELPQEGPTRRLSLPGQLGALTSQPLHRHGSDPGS

Row | SMILES | hERG current change (%, negative = inhibition) at 10uM [%]
1 | Cc1ccccc1NC(=S)N(CCCN1CCC(C)CC1)Cc1ccco1 | -47.9
2 | CCCCCC(=O)Nc1ccc(C(=O)N/N=C/c2ccc([N+](=O)[O-])cc2)cc1 | -1.24
3 | COc1cccc(NC(=O)CN(c2ccc3c(c2)OCO3)S(C)(=O)=O)c1 | 3.07
4 | CC(C)c1nnc(NC(=O)CCC(=O)NCc2ccc3c(c2)OCO3)s1 | 13
5 | COc1ccccc1/C=C/C(=O)Nc1cccc(C(C)=O)c1 | -5.89
6 | Cc1cc(S(=O)(=O)n2cnc3ccccc32)c(C)cc1Cl | -4.51
7 | CCN1CCC(=NNC(=O)c2ccco2)CC1 | 2.31
8 | Cc1ccc(S(=O)(=O)NCCC(=O)NC(C)c2ccccc2)cc1 (stereo not shown) | 11.9
9 | Cc1cc(C)c(S(=O)(=O)N2CCN(C(=O)C3CCCO3)CC2)c(C)c1 (stereo not shown) | -17.1
10 | CCOc1ccc(Cc2nc(C)c(CC(=O)N3CCOCC3)c(=O)[nH]2)cc1 | 8.37
11 | CC(=O)Oc1ccc2occ(C(=O)c3ccccc3)c2c1 | -9.85
12 | CC1(C(=O)N2CC3(CC(c4ccccc4)=NO3)C[C@H]2C(=O)NCC(N)=O)CC1 (stereo partly shown) | -3.4
13 | COc1cc(C)ccc1OCCON1C(=O)CCC1=O | 11
14 | O=C(NCc1nnc(SCC(=O)N2CCCc3ccccc32)n1-c1ccccc1)c1cccc2ccccc12 | 3.06
15 | COc1ccc(C(=O)CSc2nnc(-c3ccoc3C)n2CC2CCCO2)cc1 (stereo not shown) | -11.7
16 | COc1ccc(S(=O)(=O)Nc2ccc3c(c2)n(C)c(=O)n3C)cc1 | 13.4
17 | CCCCCOc1ccc(C(=O)NCC(=O)NCC(=O)OCC)cc1 | 3.49
18 | Cc1oc(/N=C/c2ccc(F)cc2)c(C#N)c1C | 25.1
19 | CC1=Nc2ccccc2N=C(NC(=O)c2ccccc2)C1c1ccccc1 (stereo not shown) | -9.83
20 | Cc1cc2cc(C(c3nnnn3Cc3ccco3)N3CCc4ccccc43)c(=O)[nH]c2cc1C (stereo not shown) | 9.41
21 | CC1(C)NC(=O)N(CC(O)Cn2c3ccccc3c3ccccc32)C1=O (stereo not shown) | 1.48
22 | COc1cc(C)ccc1OCc1cc(C(=O)N(Cc2nccn2C)C(C)C)no1 | -0.39

Row | SMILES | hERG current change (%, negative = inhibition) at 10uM [%]
23 | CC(C)CN(C(=O)COC(=O)C12CC3CC(CC(O)(C3)C1)C2)C1CCS(=O)(=O)C1 (stereo not shown) | 20
24 | CCCOc1cccc(C(=O)NC(=S)Nc2ccccc2)c1 | 15
25 | Cc1ccn2c(NC3CCCC3)c(-c3ccsc3)nc2c1 | -36.9
26 | CC(=O)Nc1ccc(Nc2cc(C)c3ccccc3n2)cc1 | -27.4
27 | COc1cc(OC)cc(C(=O)NC2CCSC2=O)c1 (stereo not shown) | -5.55
28 | CCCn1nc(C(=O)N2CCc3ccccc3C2)c2ccccc2c1=O | -9.54
29 | O=C(NCCc1c[nH]c2ccccc12)C1CCC(Cn2c(=S)[nH]c3ccccc3c2=O)CC1 (stereo not shown) | -13.9
30 | Cc1cc2c(c(SCC(=O)NCCc3ccccc3)n1)C(=O)OC2 | -13.8
31 | Cc1onc(-c2ccccc2Cl)c1C(=O)Nc1nnc(-c2ccc(F)cc2)s1 | -14.5
32 | O=C(Nc1cccc(Br)c1)c1ccc(OC2CSC2)cc1 | -6.64
33 | O=C(N=Nc1c(O)[nH]c2ccc(F)cc12)C1COc2ccccc2O1 (stereo not shown) | -2.06
34 | COc1cc(C(=O)OCC(=O)NCc2ccc(F)cc2)cc(NC(=O)c2cccs2)c1OC | -2
35 | C/C(=N\NC(=O)C(N)=O)c1ccc(O)cc1O | 17.6
36 | CCC(C)(C)NC(=O)CN(C(=O)C(=O)Nc1ccc2c(c1)OCCO2)C(C)(C)CC | 1.94
37 | CCOC(=O)c1cccc(NC(=O)COc2nsnc2N2CCOCC2)c1 | -3.49
38 | c1ccc(SCc2cn3cccnc3n2)nc1 | 15.1
39 | CC(=O)NCC1CCCN(Cc2cn(-c3ccccc3)nc2-c2ccc3c(c2)OCO3)C1 (stereo not shown) | -45.9
40 | CC(C)(C)OC(=O)N[C@@H](Cc1ccccc1)c1nnc(SCC(=O)O)o1 | 4.34
41 | O=C1N=C(N2CCN(c3ccccc3)CC2)S/C1=C\c1ccco1 | -66.1
42 | CCn1c(SCC(=O)Nc2cc(C)on2)nc2c(c1=O)SC(C)C2 (stereo not shown) | -4.2
43 | C=C(C)C1CC=C(CN2CCN(Cc3ccccc3)CC2)CC1 (stereo not shown) | 12.1
44 | N#CCCn1cc(C(=O)Nc2ccc([N+](=O)[O-])cc2)c(-c2ccc3c(c2)OCCO3)n1 | -72.8

Row | SMILES | hERG current change (%, negative = inhibition) at 10uM [%]
45 | C=CCOC(=O)C1=C[C@@H](c2csc3ccccc23)[C@H](CCCO)[C@@H](OCC)O1 | -27.7
46 | CC(C)CCNC(=O)COC(=O)c1ccc(Br)o1 | 9.88
47 | COC(=O)C1=C(c2ccc(OC)c(OC)c2)C[C@@H]2CC[C@H]1N2C(=O)N1CCOCC1 | 10.3
48 | CCOC(=O)CC(NC(=O)C(Cc1ccc(N(CCCl)CCCl)cc1)NC(C)=O)C(=O)OCC (stereo not shown) | 0.137
49 | CCOc1ccccc1OCC(=O)Nc1ccc(OC)c(S(=O)(=O)N2CCCCC2)c1 | -29.7
50 | CN(CCNC(=O)c1ccc(/C=N/O)nc1)Cc1ccccc1 | -29.3
51 | Cc1cc(C(=O)OCC(=O)NC(=O)NC(C)(C)C)c(C)o1 | -2.39
52 | Cc1ccc(C(=O)n2nc(-c3ccco3)nc2N)cc1 | 1.96
53 | CCCCN1C(=O)CC(Sc2ncccc2C(=O)O)C1=O (stereo not shown) | 13
54 | O=C(Nc1ccc(-c2noc(CCc3ccccc3)n2)cc1)c1ccco1 | 6.55
55 | c1cnc2c(c1)ncc1cscc12 | -17.5
56 | CC1CC(=O)Nc2ccc([N+](=O)[O-])cc2N1C (stereo not shown) | 7.59
57 | c1cncc(C(c2nnnn2C2CCCC2)N2CCN(Cc3ccc4c(c3)OCO4)CC2)c1 (stereo not shown) | -10.8
58 | COc1cc(/C=C2\C(=O)NN(c3ccccc3)C2=O)ccc1OCC(N)=O | 8.39
59 | COc1ccc(C(=O)NC(=S)Nc2nc(-c3ccc(OC)c(Br)c3)cs2)cc1Br | 23.1
60 | O=C(O)CCCC(=O)Nc1cccc(C(=O)Nc2ccccc2C(=O)O)c1 | 21.5
61 | Cc1ccc(NC(=S)NNC(=O)CCn2cc(C)cn2)cc1 | 14.3
62 | CCN(CC)S(=O)(=O)c1ccc(C(=O)OCC(=O)NCCN2C(=O)CSC2=O)cc1 | -14.4
63 | Cc1ccc(C(=O)Oc2cc(N)n(S(=O)(=O)c3ccc(C)cc3)n2)cc1 | 9.19
64 | COc1ccc2[nH]c3c(=O)n(CCCCC(=O)N4CCCC4)c(=S)[nH]c3c2c1 | -1.29
65 | O=C(/C=C/c1cccs1)NC(=S)Nc1ccccc1 | 25.2
66 | O=C(CCCNS(=O)(=O)c1ccc(Cl)c(Cl)c1)NCCc1ccccn1 | -16.9

Row | SMILES | hERG current change (%, negative = inhibition) at 10uM [%]
67 | Cc1ccc(C(=O)NCCCNC(=O)c2ccco2)cc1C | 14.7
68 | Cc1cc(-n2cnnn2)ccc1C(C)C | -15.8
69 | Cc1cccc(-n2ccc(=O)c(C(=O)Nc3ccc(S(=O)(=O)Nc4nccs4)cc3)n2)c1 | -18.3
70 | O=C(NCC1CCCO1)C(=O)N/N=C/c1ccc(O)c(Cl)c1 (stereo not shown) | 10
71 | COc1ccccc1C(=O)Nc1nc(N)n(-c2ccccc2)n1 | 13.8
72 | CC1=C(C(N)=O)C(c2cccs2)NC(=S)N1 (stereo not shown) | 24.5
73 | CC1CCC/C=C/C(=O)c2c(O)cc(O)cc2CC(=O)O1 (stereo not shown) | -8.95
74 | O=C(CCCOc1ccccc1)N1CCc2ccccc2C1 | 0.877
75 | COc1ccc2cc(CN(CC3CCCO3)C(=O)Nc3ccccc3)c(=O)[nH]c2c1 (stereo not shown) | -33.4
76 | O=C1C(=Cc2cccn2-c2ccc(O)cc2)C(=O)c2ccccc21 | 1.3
77 | COc1ccc(C(C)=O)cc1CC(=O)Nc1ccccc1-c1ccccc1 | 20
78 | O=C(CN1CCCCCC1)Nc1cccc(NC(=O)CN2CCCCCC2)c1 | 13
79 | Cc1ccc2c(CC(=O)OC(C)C(=O)Nc3ncc(Cl)cc3Cl)coc2c1 (stereo not shown) | -28.2
80 | c1ccc(-c2nc(-n3ccnc3)nc(-n3ccnc3)n2)cc1 | -69.4
81 | COc1ccc(NC(=O)C2CCCN(S(=O)(=O)c3c(C)[nH]c(=O)[nH]c3=O)C2)cc1OC (stereo not shown) | 30.8
82 | Cc1occc1C(=O)N=Nc1c(O)n(C)c2ccccc12 | 15.3
83 | Cl.N=c1n(Cc2ccccc2Cl)c2ccccc2n1CC(O)c1ccco1 (stereo not shown) | -56.7
84 | Cc1cc(C)n(CC(=O)NNC(=O)c2ccc(NC(=O)CC#N)cc2)n1 | 5.56
85 | Cc1cc(C)nc(N(C#N)Cc2cccc([N+](=O)[O-])c2)n1 | -15.3
86 | COc1ccc(C2c3[nH]c4ccccc4c3CCN2Cc2ccoc2)c(F)c1 (stereo not shown) | -36.9
87 | COc1ccc(CN(C)CC(=O)Nc2ccc(Cl)cc2C(F)(F)F)c(OC)c1.O=C(O)C(=O)O | 2.46
88 | CCOc1ccccc1C1N(c2ccc(OC)cc2)C(=O)C2CCCN21 (stereo not shown) | 12.1
